# The supplement of paper PMC11417369
# The list shows a part of the results.
# Test system: PfSIP2 AP2 domain 1 (GST-tagged)
# Assay: gcPBM binding intensity (ln(normalized median fluorescence intensity)); higher = stronger DNA binding
# How it was run: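 Alexa488 anti-GST antibody, scanned at 488 nm, detected GST-tagged P. falciparum DNA-binding domains that had been expressed in E. coli and incubated for 1 h on an Agilent 4 × 180k array. The array carried primer-extended double-stranded 36-bp intergenic genomic probes and negative controls. Binding intensity is the highest Masliner-normalised natural-log median intensity across replicate spots of either orientation of each probe.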
row,Sequence,gcPBM binding intensity (ln)
1,CCTTTATTAAATAAATGTACATATTTTTGTGTTCTT [XGTACX_site2052],7.19
2,AATAAAAATAAAATTGTATATTTTAAATGAAAATAA [CACACA_negctrl_site898],6.73
3,GTTGGTAGGATGTATGGTACACGTAGTATTTTTCTT [XGTACX_site2],6.95
4,ACATATGAAAAATATGCATGCAAATATTATTTAACA [TGCATGCA_site802],6.88
5,TATGTATGTTAGTGTGCACACATAAATATTATATAT [CACACA_site9121],9.26
6,TTTTTAAAATTTTTAAAAATATTATGTTAAATATAT [CACACA_negctrl_site415],6.86
7,TTGAAAGAAAATAAAATAAAATAAAATAAAATAAAA [CACACA_negctrl_site859],6.82
8,AAAAAAAAAAAAATCTCACACATAAAGAGATTATGA [CACACA_site4408],6.95
9,ATATATATGTATTTATGTACATATTATTTTTCTTAA [XGTACX_site8169],7.16
10,AATAAATAAAAATATATATATATAATATACATGTGT [TGCATGCA_negctrl_site369],7.19
11,TTTTATTTCAATCCACAAGGGATAAAATAAAGTTTT [CACACA_negctrl_site699],6.71
12,GGATGTATTTATATGTGTATGTGTTTGGAAATATGT [XGTACX_negctrl_site99],7.33
13,TACATGAATATATAAAGAAAAAAAAAAAAACACACA [XGTACX_negctrl_site350],7.01
14,TATAAATTATATATTTGTACGTATATCACATATATA [XGTACX_site7053],7.08
15,TATATGTTATATTTAACACACATATAAGGTACATAT [CACACA_site612],7.06
16,TTTATTGAATAAAATGCACACGCATGCGTTATTTAT [CACACA_site9154],6.92
17,TTCTCATAATTAAATAGTACATATTTTAATAATCAC [XGTACX_site6116],7.14
18,TGTTAAAGAGAAAGTACTACACATATTATGTGTTTT [XGTACX_site1435],6.88
19,TTTTATAAACAGAGGGGTACGGGAAAAAAAAAAAAA [XGTACX_site1480],7.11
20,TTAAAAAAAATTATTTGTACTTAAAAATTTTATATT [XGTACX_site8751],6.86
21,AGAAAAAAAAAACACACACACACACCGTCAATATAA [CACACA_site7895],6.86
22,TTTTTAAACCATGTTGTGCACATTTTTTTTGGATTT,9.2

row,Sequence,gcPBM binding intensity (ln)
1,AAAATTATATATTATAGTACATAAAATTTTGATATA [XGTACX_site994],6.91
2,TTTGTACCGGCATTTTTTTTTTCTTTTTTTTTCCAA [XGTACX_negctrl_site323],6.73
3,TTAGTTATTATAATTTGTACACAAATGGTAAAGTAT [XGTACX_site2343],7.25
4,TATTAAAAATGTTAAGTGCAAAAATAAAAATTGTGG [GTGCAC_site9854],7.71
5,ATTTTTTTTTTTTTTTTGGGGGGGTATACTTTTAAA [CACACA_negctrl_site1020],10.7
6,TTCCTTTTTTTTTATTGTACAAAAATATCAAAAAGG [XGTACX_site8505],7.23
7,AATTATATAACAAATTGTACGAATGAAAATATTATT [XGTACX_site4237],6.94
8,TAAAAATAGGAATACGCACACGATGATTAATTTATA [CACACA_site1835],6.67
9,TATAATGAGGATGATAGTACGTATTAGTATAAAAAA [XGTACX_site6623],7.14
10,TTTATATATATTTATACACACAAACATAATACTACT [CACACA_site5161],6.97
11,TTTTTAATTTTATATACACACATAAAATATATGAAG [CACACA_site3145],7.01
12,TGTTATTATAACATTTTTTTCAAAATAGCTTTAGAA [CACACA_negctrl_site266],6.77
13,ATAATACCCAAGCACACACACACACCGATATATATA [CACACA_site8344],7.35
14,AATTTATAAGAATAAAGTACTAAAGATACAACTTTA [XGTACX_site7153],6.87
15,ATTAAAGGAAGCAAAACATGCAACAGCAATATTGCA [TGCATGCA_site452],6.67
16,ATATATTGGAGCACAACACACACAAGTATATATATG [CACACA_site8435],7.21
17,AAAAAAAAATACAAAATAGCAATAAATACACAAACG [GTGCAC_negctrl_site707],7.01
18,AAAAAAAAAAAAAACACACAGAACAATATATAAATA [CACACA_site982],7.11
19,AAAAAAAAAAAAAAAACATGCACAAATTATAAGTGA [TGCATGCA_site378],7.66
20,ACTACATAATACTATTCACACATTTTTTTTTTTTTT [CACACA_site5794],7.13
21,AATTTTTTTTTAATCATGCACACTGTTAAAAGAATA [CACACA_site1240],8.99
22,AAAAAATAGAATATAAAAATAAAGGAATTAAATTAA [XGTACX_negctrl_site420],6.47

row,Sequence,gcPBM binding intensity (ln)
1,TTTTAAAAATTAAGTGCATGTCCTTATAAAAAAAAA [TGCATGCA_site845],8.67
2,TTCATATATTTAGGACGTACTTTTATATTACTATAT [XGTACX_site6456],6.93
3,ATATGGAATAATACGCGTACACACATATATATATTA [XGTACX_site307],7.3
4,TTTATATCATTACAAGTGCATATCATCATAAATTCT [GTGCAC_site9878],8.22
5,TCTTGATTATATAGTACTACACATTATAAAAAAATT [XGTACX_site2465],7.21
6,TATATATAAATATATGTGCACTTTTTATATTTATAT,10.6
7,AAAATTACTATATGAACACACATGATTAGATATATG [CACACA_site3083],6.76
8,TATATATATATATACACACACACCCTAAAAATATAT [CACACA_site1611],9.07
9,TGAAAGAATTAATTTTGTACATATAAAAATTTTATT [XGTACX_site8500],6.9
10,TTTTTATTTTTAAAGGCACACACATTTTTATTTTTA [CACACA_site8624],7.04
11,AATAAATAAATAATATAATGAAATTATAAAATGTGG [TGCATGCA_negctrl_site385],6.82
12,AAATGAAATTTGTATACACACAAATATATTTATATA [CACACA_site6525],6.85
13,TATTTGTGCCAAAAATGAAAAAGTTTGTATAAAACC [CACACA_negctrl_site1406],7.04
14,AATGATCATAAATACACACACACAAAAAAAAAAAAA [CACACA_site6072],7.1
15,TATTAAAAAAATGTATGTACATATATAAATTTTTTT [XGTACX_site1094],6.96
16,GATGGATTTATTTAAAGTACATATTTAAAAAACTGT [XGTACX_site7567],6.89
17,TTTCTCCCATTTTTTAGTACACAAAATATATATGTA [XGTACX_site7218],7.29
18,AAAGTAAAAGAAAGCACACACACATGTATATATGTA [CACACA_site3857],6.86
19,AAAAAAAAAAAATATACACACACATATATATATATA [CACACA_site9123],9.56
20,AACAACAATTTCGTCATACACACATTCAGAATATAT [CACACA_site2371],7.11
21,CAGGCGTGAAATATACGTACACACATTATTTATATT [XGTACX_site5337],7.03
22,ATATAAATTATTTACACACAAACATTTATACTTTTA [CACACA_site3448],7.17

row,Sequence,gcPBM binding intensity (ln)
1,TTTTGTTACGGCAAGGAAGTTAAGCATAAATGAATG [GTGCAC_negctrl_site173],7.21
2,ATATTTTTTGCTATTACACACAAGGGATTATTATTT [CACACA_site7776],7.3
3,AAGAAAAAAAATATATATGTATATATTATTTTAACA [TGCATGCA_negctrl_site534],6.83
4,TAATAATAGTCTAATACATGCATCGATAACGGAACT [TGCATGCA_site98],6.75
5,ATGTTAATAACTTGTGGTACTGTTATAATTTAGTAA [XGTACX_site2114],6.99
6,ATATATCTACTGTGTTGTACTGTTAATATTTGAATA [XGTACX_site1931],7.05
7,ATATAAGTGTATCTAACACACAAATATGTAAAAATG [CACACA_site7006],6.93
8,TATATACACATATATACACACACATATATATATATA [CACACA_site9127],9.28
9,GACAAAAAATTAAAATAAAATAATAATATAATAAAA [GTGCAC_negctrl_site234],6.66
10,ATATAATAGTTATATTGTACATAAATTATACACCTT [XGTACX_site628],6.83
11,TATAAACACCCATATAAACACACATATAAACCAACA [CACACA_site8790],7.25
12,ATACGCACACATATATGTACATATTGTATATATATA [XGTACX_site3962],8.11
13,ACAATTTACACTTAAACACACAAAAAAAAATTATAT [CACACA_site2065],6.98
14,AAGGTAGAAATATGTTGTACGGTTTGGAGGAAGCAA [XGTACX_site1105],7.26
15,GCATCGATCAAACATACACACATGGTTAATAAAAAT [CACACA_site8651],7.17
16,ACATATATATTCATATGTACATATACATACATACAT [XGTACX_site4563],8.12
17,GTTAAAATTGGGGACGCATGTTCCTTTCCTTTTTTT [TGCATGCA_site1002],6.64
18,TTATAAATGTAACGATGTACTTTTAAAAGTTTCCTT [XGTACX_site109],6.88
19,GGAATGGTACATGATACACACACGCACATATATATA [CACACA_site5825],7.5
20,TATATTAAACAATATACACACATTAATGTATACATA [CACACA_site2755],6.91
21,TTTTTTATAAAATTTTTTTTTTAAAATATTAAAACT [XGTACX_negctrl_site240],6.74
22,AAGCTATATATAGGCAGTACTTTGTAAGTGTAGATA [XGTACX_site8365],7.05
